# Source: the supplement of paper PMC8728848
# Some of the results follow.
# Key:
# Test in all cases: glycan array binding signal (z-score within array); higher = stronger binding
# Settings in all cases: glycan notation: IUPAC condensed, linker removed
# [1] = biological target: Neu5Ac(a2-6)Gal(b1-4)GlcNAc(b1-3)Gal(b1-4)GlcNAc
# Outline: (§1)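 The binding signal is a Z-score computed within each array. Data were drawn from 3228 arrays in the Consortium for Functional Glycomics database, restricted to those with a known protein sequence. Scores were averaged over arrays of the same protein sequence at different concentrations or buffers, and over linkers, and negative values can be taken as non-binding.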
# [2] = biological target: Neu5Ac(a2-6)Gal(b1-4)GlcNAc(b1-3)Gal(b1-4)GlcNAc(b1-2)Man(a1-3)[Neu5Ac(a2-6)Gal(b1-4)GlcNAc(b1-3)Gal(b1-4)GlcNAc(b1-2)Man(a1-6)]GalNAc
# Outline: as §1
# [3] = biological target: Neu5Ac(a2-6)Gal(b1-4)GlcNAc(b1-3)Gal(b1-4)GlcNAc(b1-3)Gal(b1-4)GlcNAc
# Outline: as §1
# [4] = biological target: Neu5Ac(a2-6)Gal(b1-4)GlcNAc(b1-3)Gal(b1-4)GlcNAc(b1-3)Gal(b1-4)GlcNAc(b1-2)Man(a1-3)[Neu5Ac(a2-6)Gal(b1-4)GlcNAc(b1-3)Gal(b1-4)GlcNAc(b1-3)Gal(b1-4)GlcNAc(b1-2)Man(a1-6)]GalNAc
# Outline: as §1
# [5] = biological target: Neu5Ac(a2-6)Gal(b1-4)GlcNAc(b1-3)Gal(b1-4)GlcNAc(b1-3)GalNAc
# Outline: as §1
# [6] = biological target: Neu5Ac(a2-6)Gal(b1-4)GlcNAc(b1-3)Gal(b1-4)GlcNAc(b1-3)[Neu5Ac(a2-6)Gal(b1-4)GlcNAc(b1-3)Gal(b1-4)GlcNAc(b1-6)]GalNAc
# Outline: as §1
# [7] = biological target: Neu5Ac(a2-6)Gal(b1-4)GlcNAc(b1-3)Gal(b1-4)GlcNAc(b1-6)[Gal(b1-3)]GalNAc
# Outline: as §1
# [8] = biological target: Neu5Ac(a2-6)Gal(b1-4)GlcNAc(b1-3)Gal(b1-4)[Fuc(a1-3)]GlcNAc(b1-3)Gal(b1-4)[Fuc(a1-3)]GlcNAc
# Outline: as §1
# [9] = biological target: Neu5Ac(a2-6)Gal(b1-4)GlcNAc(b1-3)GalNAc
# Outline: as §1
# [10] = biological target: Neu5Ac(a2-6)Gal(b1-4)GlcNAc(b1-3)[Neu5Ac(a2-6)Gal(b1-4)GlcNAc(b1-6)]GalNAc
# Outline: as §1
# [11] = biological target: Neu5Ac(a2-6)Gal(b1-4)GlcNAc(b1-6)GalNAc
# Outline: as §1
# [12] = biological target: Neu5Ac(a2-6)Gal(b1-4)GlcNAc(b1-6)[Gal(b1-3)GlcNAc(b1-3)]Gal(b1-4)Glc
# Outline: as §1
# [13] = biological target: Neu5Ac(a2-6)Gal(b1-4)GlcNAc(b1-6)[Gal(b1-3)]GalNAc
# Outline: as §1
# [14] = biological target: Neu5Ac(a2-6)Gal(b1-4)GlcNAc6S
# Outline: as §1
# Neu5Ac(a2-6)GalNAc = biological target: Neu5Ac(a2-6)GalNAc
# Outline: as §1
# [15] = biological target: Neu5Ac(a2-6)GalNAc(b1-4)GlcNAc
# Outline: as §1
# [16] = biological target: Neu5Ac(a2-6)GalNAc(b1-4)GlcNAc6S
# Outline: as §1
# [17] = biological target: Neu5Ac(a2-6)GlcNAc(b1-4)GlcNAc
# Outline: as §1
# [18] = biological target: Neu5Ac(a2-6)GlcNAc(b1-4)GlcNAc(b1-4)GlcNAc
# Outline: as §1
# Neu5Ac(a2-8)Neu5Ac = biological target: Neu5Ac(a2-8)Neu5Ac
# Outline: as §1
# [19] = biological target: Neu5Ac(a2-8)Neu5Ac(a2-3)Gal(b1-3)GalNAc(b1-4)[Neu5Ac(a2-3)]Gal(b1-4)Glc
# Outline: as §1
# [20] = biological target: Neu5Ac(a2-8)Neu5Ac(a2-3)Gal(b1-3)GalNAc(b1-4)[Neu5Ac(a2-8)Neu5Ac(a2-3)]Gal(b1-4)Glc
# Outline: as §1
# [21] = biological target: Neu5Ac(a2-8)Neu5Ac(a2-3)Gal(b1-4)Glc
# Outline: as §1
# [22] = biological target: Neu5Ac(a2-8)Neu5Ac(a2-3)Gal(b1-4)GlcNAc
# Outline: as §1
# [23] = biological target: Neu5Ac(a2-8)Neu5Ac(a2-3)[Gal(b1-3)GalNAc(b1-4)]Gal(b1-4)Glc
# Outline: as §1
# [24] = biological target: Neu5Ac(a2-8)Neu5Ac(a2-3)[GalNAc(b1-4)]Gal(b1-4)Glc
# Outline: as §1
# [25] = biological target: Neu5Ac(a2-8)Neu5Ac(a2-8)Neu5Ac
# Outline: as §1
# [26] = biological target: Neu5Ac(a2-8)Neu5Ac(a2-8)Neu5Ac(a2-3)Gal(b1-4)Glc
# Outline: as §1
# [27] = biological target: Neu5Ac(a2-8)Neu5Ac(a2-8)Neu5Ac(a2-3)[Gal(b1-3)GalNAc(b1-4)]Gal(b1-4)Glc
# Outline: as §1
# [28] = biological target: Neu5Ac(a2-8)Neu5Ac(a2-8)Neu5Ac(a2-3)[GalNAc(b1-4)]Gal(b1-4)Glc
# Outline: as §1
# [29] = biological target: Neu5Ac(a2-8)Neu5Ac(a2-8)Neu5Ac(a2-8)Neu5Ac(a2-3)[GalNAc(b1-4)]Gal(b1-4)Glc
# Outline: as §1
# [30] = biological target: Neu5Ac(a2-8)Neu5Gc(a2-3)Gal(b1-4)GlcNAc
# Outline: as §1
# [31] = biological target: Neu5Ac(b2-6)Gal(b1-4)GlcNAc
# Outline: as §1
# Neu5Ac(b2-6)GalNAc = biological target: Neu5Ac(b2-6)GalNAc
# Outline: as §1
# [32] = biological target: Neu5Ac9Ac(a2-3)Gal(b1-3)GlcNAc
# Outline: as §1
# [33] = biological target: Neu5Ac9Ac(a2-3)Gal(b1-4)GlcNAc
# Outline: as §1
# [34] = biological target: Neu5Ac9Ac(a2-6)Gal(b1-4)GlcNAc
# Outline: as §1
# [35] = biological target: Neu5Gc(a2-3)Gal(b1-3)GlcNAc
# Outline: as §1
# [36] = biological target: Neu5Gc(a2-3)Gal(b1-3)[Fuc(a1-4)]GlcNAc
# Outline: as §1
# Neu5Gc(a2-3)Gal(b1-4)Glc = biological target: Neu5Gc(a2-3)Gal(b1-4)Glc
# Outline: as §1
# [37] = biological target: Neu5Gc(a2-3)Gal(b1-4)GlcNAc
# Outline: as §1
# [38] = biological target: Neu5Gc(a2-3)Gal(b1-4)GlcNAc(b1-3)Gal(b1-4)GlcNAc(b1-2)Man(a1-3)[Neu5Gc(a2-3)Gal(b1-4)GlcNAc(b1-3)Gal(b1-4)GlcNAc(b1-2)Man(a1-6)]Man(b1-4)GlcNAc(b1-4)GlcNAc
# Outline: as §1
# [39] = biological target: Neu5Gc(a2-3)Gal(b1-4)[Fuc(a1-3)]GlcNAc
# Outline: as §1
# [40] = biological target: Neu5Gc(a2-6)Gal(b1-4)GlcNAc
# Outline: as §1
# Neu5Gc(a2-6)GalNAc = biological target: Neu5Gc(a2-6)GalNAc
# Outline: as §1
binder,measurement,setting,value
Banana lectin (Musa acuminata) (protein) MNGAIKVGAWGGNGGSAFDMGPAYRIISVKIFSGDVVDGVDVTFTYYGKTETRHYGGSGGTPHEIVLQEGEYLVGMAGEVANYHGAVVLGKLGFSTNKKAYGPFGNTGGTPFSLPIAAGKISGFFGRGGKFLDAIGVYLEPLEHHHHHH,glycan array binding signal (z-score),[1],-0.226
same,glycan array binding signal (z-score),[2],0.219
same,glycan array binding signal (z-score),[3],-0.222
same,glycan array binding signal (z-score),[4],-0.169
same,glycan array binding signal (z-score),[5],-0.223
same,glycan array binding signal (z-score),[6],-0.161
same,glycan array binding signal (z-score),[7],-0.191
same,glycan array binding signal (z-score),[8],-0.219
same,glycan array binding signal (z-score),[9],-0.214
same,glycan array binding signal (z-score),[10],-0.175
same,glycan array binding signal (z-score),[11],-0.243
same,glycan array binding signal (z-score),[12],-0.212
same,glycan array binding signal (z-score),[13],-0.191
same,glycan array binding signal (z-score),[14],-0.22
same,glycan array binding signal (z-score),Neu5Ac(a2-6)GalNAc,-0.204
same,glycan array binding signal (z-score),[15],-0.221
same,glycan array binding signal (z-score),[16],-0.227
same,glycan array binding signal (z-score),[17],-0.182
same,glycan array binding signal (z-score),[18],-0.173
same,glycan array binding signal (z-score),Neu5Ac(a2-8)Neu5Ac,-0.21
same,glycan array binding signal (z-score),[19],-0.192
same,glycan array binding signal (z-score),[20],-0.179
same,glycan array binding signal (z-score),[21],-0.248
same,glycan array binding signal (z-score),[22],-0.215
same,glycan array binding signal (z-score),[23],-0.221
same,glycan array binding signal (z-score),[24],-0.182
same,glycan array binding signal (z-score),[25],-0.182
same,glycan array binding signal (z-score),[26],-0.139
same,glycan array binding signal (z-score),[27],-0.215
same,glycan array binding signal (z-score),[28],-0.199
same,glycan array binding signal (z-score),[29],-0.142
same,glycan array binding signal (z-score),[30],-0.242
same,glycan array binding signal (z-score),[31],-0.214
same,glycan array binding signal (z-score),Neu5Ac(b2-6)GalNAc,-0.209
same,glycan array binding signal (z-score),[32],-0.228
same,glycan array binding signal (z-score),[33],-0.23
same,glycan array binding signal (z-score),[34],-0.197
same,glycan array binding signal (z-score),[35],-0.233
same,glycan array binding signal (z-score),[36],-0.219
same,glycan array binding signal (z-score),Neu5Gc(a2-3)Gal(b1-4)Glc,-0.209
same,glycan array binding signal (z-score),[37],-0.215
same,glycan array binding signal (z-score),[38],-0.308
same,glycan array binding signal (z-score),[39],-0.205
same,glycan array binding signal (z-score),[40],-0.212
same,glycan array binding signal (z-score),Neu5Gc(a2-6)GalNAc,-0.232
